Screen size: about 350,000 compounds; about 31,000 (8.9%) were called active. The inconclusive results got no clear call from the source; some entries with a clear call stand among them for comparison. The call rests on the fitted dose curve; in most records, active means well fitted inhibition curve with a large enough effect; inconclusive means small, poorly fitted or top-dose-only effect; inactive means no such curve, though single readings can be large or run the other way. Where the call is inconclusive, the potency comes from a doubtful curve fit.
biological target: Histone-lysine N-methyltransferase EHMT2 (Homo sapiens) (UniProt Q96KQ7); assay: qHTS Assay for Inhibitors of Histone Lysine Methyltransferase G9a; conditions: G9a H3K9 monomethylation, AlphaScreen, 2 h; activity, negative = inhibition: at 59 µM (top of the series) unless noted; further: nearly all actives have a fitted effect of over 75% in size
Summary of the method: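 Step 1: enzyme (final 20 nM) with compound, 15 min RT. Step 2: substrate peptide 500 nM and SAM 20 uM, 2 h RT. Step 3: anti-H3K9me1 antibody and AlphaScreen beads, 10 min, then plate read.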
On the % scale 0 is the no-effect control and ±100 the full control effect; potency means the concentration at half of the fitted maximal effect; tags describe the fitted curve by direction and shape.

Chain of UniProt Q96KQ7 (Q96KQ7 whole entry, looked up): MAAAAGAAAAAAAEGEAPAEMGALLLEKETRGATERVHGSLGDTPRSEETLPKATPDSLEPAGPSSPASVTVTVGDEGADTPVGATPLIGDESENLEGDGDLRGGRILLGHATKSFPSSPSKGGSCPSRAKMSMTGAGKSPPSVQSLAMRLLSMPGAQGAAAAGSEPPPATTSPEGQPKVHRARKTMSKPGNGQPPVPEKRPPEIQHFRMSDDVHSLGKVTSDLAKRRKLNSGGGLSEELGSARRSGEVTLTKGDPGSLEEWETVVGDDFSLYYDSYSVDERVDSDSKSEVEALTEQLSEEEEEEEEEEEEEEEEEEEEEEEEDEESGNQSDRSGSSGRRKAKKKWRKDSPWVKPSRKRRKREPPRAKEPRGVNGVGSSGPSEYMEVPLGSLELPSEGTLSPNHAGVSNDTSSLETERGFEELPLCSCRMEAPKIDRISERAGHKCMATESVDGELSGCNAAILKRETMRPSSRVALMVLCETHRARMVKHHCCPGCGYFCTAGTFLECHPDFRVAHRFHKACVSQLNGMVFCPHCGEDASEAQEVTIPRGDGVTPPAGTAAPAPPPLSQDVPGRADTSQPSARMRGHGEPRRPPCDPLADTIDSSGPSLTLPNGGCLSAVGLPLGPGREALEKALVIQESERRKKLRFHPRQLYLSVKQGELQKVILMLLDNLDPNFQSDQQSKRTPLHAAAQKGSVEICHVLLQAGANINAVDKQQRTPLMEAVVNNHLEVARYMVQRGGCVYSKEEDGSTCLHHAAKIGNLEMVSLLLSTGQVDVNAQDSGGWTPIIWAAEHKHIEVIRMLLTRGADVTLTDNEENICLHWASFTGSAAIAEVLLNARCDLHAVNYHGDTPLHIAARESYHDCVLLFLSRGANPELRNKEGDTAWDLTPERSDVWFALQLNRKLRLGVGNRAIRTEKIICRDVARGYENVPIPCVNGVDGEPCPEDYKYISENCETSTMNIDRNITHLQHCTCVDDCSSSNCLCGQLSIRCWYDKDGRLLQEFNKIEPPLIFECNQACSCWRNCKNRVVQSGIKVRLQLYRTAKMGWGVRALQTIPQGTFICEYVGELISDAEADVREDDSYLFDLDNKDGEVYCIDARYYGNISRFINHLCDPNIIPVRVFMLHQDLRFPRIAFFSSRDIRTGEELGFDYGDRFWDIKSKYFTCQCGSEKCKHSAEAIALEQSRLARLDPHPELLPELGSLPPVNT

| Structure (SMILES) | Potency | activity, negative = inhibition |
| --- | --- | --- |
| Clc1ccc2oc(-c3ccccc3)cc(=NCCCN3CCOCC3)c2c1 | inconclusive: 56.2 µM [inhibitor, single point] |  |
| CCCCCCCCCS(=O)(=O)N/N=C/c1cccc([N+](=O)[O-])c1 |  | inconclusive: -82.7% [inhibitor] |
| CCOC(=O)/C(=N/Nc1ccc(OC)cc1)Sc1nnc(CCc2ccccc2)n1-c1ccccc1 | inconclusive: 28.2 µM [inhibitor, single point] |  |
| CCCC1(C(=O)OCC)NC(c2ccc(N(C)C)cc2)C2C(=O)N(c3ccc4c(c3)OCCO4)C(=O)C21 (stereo not drawn) | active: 8.91 µM |  |
| O=P(O)(O)O[C@@H]1[C@H](O)[C@H](O)[C@@H](OP(=O)(O)O)[C@H](OP(=O)(O)O)[C@H]1O | inactive |  |
| CC(=O)N1CCc2c(sc(NC(=O)C3CCCCC3)c2C(N)=O)C1 | inconclusive: 89.1 µM [inhibitor, single point] |  |
| Cc1ccc(S(=O)(=O)NN2C(=O)c3ccccc3NC2(C)C)cc1 | inconclusive: 89.1 µM [inhibitor, single point] |  |
| COc1ccc(OC)c(/C=C2\SC(=S)N(N3CCOCC3)C2=O)c1 | inconclusive: 2.24 µM [inhibitor, full curve, poor fit] |  |
| C/C=C/C(=O)N1CC2(CC(c3cccc(NC(=O)CC)c3)=NO2)C[C@H]1C(N)=O (stereo partly drawn) | inconclusive: 11.2 µM [inhibitor, single point] |  |
| Cc1ccc(C)c(OCCCC(=O)Nc2nccs2)c1 | inactive |  |
| COc1ccc(C(CC(=O)c2ccccc2)S(=O)(=O)c2ccccc2)cc1 (stereo not drawn) | inconclusive: 39.8 µM [inhibitor, single point] |  |
| COc1cc(C#N)ccc1OC(=O)Cc1cc(OC)c(OC)c(OC)c1 | inconclusive: 100 µM [inhibitor, single point] |  |
| COC(=O)c1ccc(Cn2c(=O)cc(C(F)(F)F)c3c(C)nn(C)c32)cc1 | inactive |  |
| CCOC(=O)C1=C(Cc2ccc(OC)cc2)C(=O)c2ccccc2C1=O | active: 2.82 µM |  |
| O=C(NC1CCCC1)c1cnn2c(C(F)(F)F)cc(-c3ccco3)nc12 | inconclusive: 89.1 µM [inhibitor, single point] |  |
| CN1c2ccccc2C(=O)C(=C2SCCCS2)S1(=O)=O | inconclusive: 50.1 µM [inhibitor, partial curve] |  |
| O=C(/C=C/c1ccc(Br)o1)OCc1nc2ccsc2c(=O)[nH]1 |  | inactive: 18.5% [at 0.501 µM] |
| O=C(COC(=O)CCSc1ccc(Cl)cc1)NCc1ccco1 | inactive |  |
| CCn1cc(C(=O)OCC(=O)Nc2ccc(F)cc2F)c(=O)c2ccc(C)nc21 | inconclusive: 35.5 µM [inhibitor, partial curve, poor fit] |  |
| COc1ccc(CNC(=O)c2cnc3scc(C)n3c2=O)cc1 | inconclusive: 63.1 µM [inhibitor, partial curve, poor fit] |  |
| COC(=O)c1ccccc1NC(=O)CCS(=O)(=O)c1ccc(Br)cc1 | active: 2.24 µM |  |
| CN=c1scc(C)n1/N=C/c1cc(Br)c(O)c(Br)c1 | active: 11.2 µM |  |

| Structure (SMILES) | Potency | activity, negative = inhibition |
| --- | --- | --- |
| CO/N=C(/C(=O)N[C@@H]1C(=O)N2C(C(=O)O)=C(CSC(=O)c3ccco3)CSC12)c1csc(N)n1 (stereo partly drawn) | inconclusive: 2.24 µM [inhibitor, partial curve, poor fit] |  |
| Cc1cc(N2CCCCC2)nc2ccc(NC(=O)/C=C/c3ccccc3Cl)cc12 | inconclusive: 17.8 µM [inhibitor, single point] |  |
| CC(C)c1ccc(-c2c(C#N)c(N)nc(SCC(=O)N3CCCCCC3)c2C#N)cc1 | inactive |  |
| CCCc1n(CC(O)COCc2ccccc2)c2ccccc2[n+]1C (stereo not drawn) | inconclusive: 44.7 µM [inhibitor, partial curve, poor fit] |  |
| Cc1cc(OCC(=O)NNC(=S)NC(=O)c2cccs2)ccc1Cl | active: 31.6 µM |  |
| Cc1ccc(S(=O)(=O)NCc2ccc3c(c2)cc(C)n3C)cc1 | inconclusive: 39.8 µM [inhibitor, single point] |  |
| CCN(c1ccc(OC)cc1)S(=O)(=O)c1ccc2[nH]c(=O)ccc2c1 | inactive |  |
| Nc1c(Cl)ncnc1N/N=C/c1ccc2ccccc2n1 | inconclusive: 17.8 µM [inhibitor, single point] |  |
| O=C(Nc1ccc(S(=O)(=O)N2CCCCC2)cc1)C1CCN(C(=O)c2ccc(F)cc2)CC1 | inconclusive: 35.5 µM [inhibitor, partial curve, poor fit] |  |
| O=C(Nc1ccccc1C(=O)OCc1cc(=O)n2c3c(sc2n1)CCCC3)c1cccc(Cl)c1 | inactive |  |
| CCOc1ccc(C2=CSC3=NCCN23)cc1[N+](=O)[O-] | inconclusive: 79.4 µM [inhibitor, single point] |  |
| COc1cccc(/C=N/Nc2ncnc(N)c2[N+](=O)[O-])c1OC |  | inconclusive: -95.4% [inhibitor] |
| CC(C)C(=O)NC(c1ccccc1)c1cc([N+](=O)[O-])c2cccnc2c1O (stereo not drawn) | inconclusive: 20 µM [inhibitor, single point] |  |
| C=CCSc1nnc(-c2ccc([N+](=O)[O-])cc2)o1 | inconclusive: 39.8 µM [inhibitor, full curve] |  |
| COc1ccc(-c2nnc(C)c3nocc23)cc1 | inactive |  |
| O=C(NC1CCCC1)C1CCN(C(=O)c2ccc(Cl)cc2Cl)CC1 | inactive |  |
| COC(=O)c1[nH]c2cc(OC)c(OC)cc2c1NC(=O)Oc1ccccc1 | active: 2.82 µM |  |
| CN(C(=O)COC(=O)C1CCN(S(=O)(=O)c2cccs2)CC1)C1CCS(=O)(=O)C1 (stereo not drawn) | inconclusive: 39.8 µM [inhibitor, partial curve] |  |
| O=C1[C@@H]2C(c3ccccc3Cl)=NO[C@@H]2C(=O)N1Cc1ccccc1 | inconclusive: 79.4 µM [inhibitor, single point] |  |
| O=C(O)CC1S/C(=N/N=C/c2ccc(-c3ccc(Cl)c([N+](=O)[O-])c3)o2)NC1=O (stereo not drawn) | inconclusive: 50.1 µM [inhibitor, partial curve, poor fit] |  |
| O=C(NC(=S)NCCCN1CCOCC1)c1ccc([N+](=O)[O-])cc1 | inconclusive: 39.8 µM [inhibitor, single point] |  |
